Results: PubChem BioAssay AID504832 (National Center for Advancing Translational Sciences (NCATS), 2011)
Hit rate of the full screen: of about 310,000 compounds, about 18,000 (5.8%) were called active. Inconclusive means that the source gave no clear call. Such entries were picked first, then a sample of the others. Calls follow the shape of the dose curve; as a rule, active = well fitted inhibition curve with a large enough effect; inconclusive = small, poorly fitted or top-dose-only effect, or another doubt; inactive = no such curve, though single readings can be large or run the other way. Potencies of inconclusive entries are left out as doubtful fits.

Test: Primary qHTS for delayed death inhibitors of the malarial parasite plastid, 48 hour incubation
Conditions: P. falciparum luciferase growth in erythrocytes; series mostly up to 28.7 µM; activity change, negative = inhibition: at the top concentration
How it was run: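 Parasite viability was followed by luminescence of a genomically integrated firefly luciferase. Cultures held 0.1% parasitemia at 2% hematocrit (final), incubated under 5% CO2 at 37 C.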
% is scaled to controls: 0 for no effect and ±100 for the full control effect; potency is read from the fitted curve at half-maximal effect; tags tell the direction and shape of the fitted curve.

Compound | activity change, negative = inhibition | Potency
COC(CNC(=O)c1ccc2c(c1)ncn2-c1ccc(F)cc1F)OC | inactive: -17.2% | 
Cc1ccc(C(=O)Nc2ccc(C(=O)N3CCCCC3C)cc2)cc1 (stereo unspecified) |  | inconclusive [inhibitor, full curve]
CCOC(=O)C1CCN(C(=O)CN(c2cc(OC)ccc2OC)S(=O)(=O)c2ccccc2)CC1 |  | active: 13.1 µM
CCOc1cc2[nH]c(=S)n(Cc3ccc(C(=O)NCCCN(CC)CC)cc3)c(=O)c2cc1OCC |  | inconclusive [inhibitor, partial curve]
NS(=O)(=O)c1ccc(CCNC(=O)c2ccccc2[N+](=O)[O-])cc1 | inactive: 4.28% | 
C/C(=N\NC(=O)c1ccoc1C)c1ccc(Cl)s1 | inactive: 65.5% | 
CCN1/C(=C/c2ccc3cc(C)ccc3[n+]2CC)Sc2ccccc21 |  | active: 0.586 µM
CCC(CO)Nc1ccc(-c2nn(C)c(=O)c3ccccc23)cc1[N+](=O)[O-] (stereo unspecified) |  | inconclusive [inhibitor, single point]
COc1ccc(CN(Cc2cccn2C)S(=O)(=O)c2ccc(C)cc2)cc1 |  | inconclusive [inhibitor, single point]
c1ccc2c(c1)[nH]c1c(NCC3CCCO3)ncnc12 (stereo unspecified) |  | inconclusive [inhibitor, single point]
COc1ccc(S(=O)(=O)N2CCCCC2)cc1NC(=O)CCCOc1ccc(C)cc1 |  | active: 10.4 µM
CCCCCCCNC(=O)C1(CC2CC(c3cccc(Br)c3)=NO2)CCN(C(=O)Cc2ccc(F)cc2)CC1 (stereo unspecified) |  | active: 7.38 µM
CCCCCC(=O)N1CCN(CCN=CC2=C(O)CC(c3ccc(OC)cc3)CC2=O)CC1 (stereo unspecified) |  | inconclusive [inhibitor, single point]
O=C(CN(c1ccc2c(c1)OCCO2)S(=O)(=O)c1ccccc1)NCC1CCCO1 (stereo unspecified) | inactive: 6.8% | 
COc1ccc(N2CCN(CCCNC(=O)c3cc4sccc4n3C)CC2)cc1 | inactive: -13.1% | 
CC(CC(=O)Nc1ccc(F)c([N+](=O)[O-])c1)c1ccccc1 (stereo unspecified) | inactive: -15% | 
COc1cc(OC)c(OC)cc1/C=C1\SC(N2CCCCC2)=NC1=O |  | inconclusive [inhibitor, partial curve, poor fit]
COc1ccc(N(C(=O)C(C)C)S(=O)(=O)c2ccc3ccccc3c2)cc1 | inactive: 47% | 
Cn1c(N)c(C(=O)Nc2ccc(-c3ccccc3)cc2)sc1=S | inactive: -29.8% | 
CCN1C(=O)[C@H]2[C@@H](c3ccc(-c4ccc(Cl)c(Cl)c4)c(OC)c3)N[C@@](Cc3ccccc3)(C(=O)OC)[C@H]2C1=O |  | active: 2.94 µM
CN(C)c1ccc(/C=N/NC(=O)c2nnn(-c3nonc3N)c2COc2ccc(F)cc2)cc1 | inactive: 25.2% | 
CCOCCCNC(=O)C(c1ccccc1)N(Cc1cccs1)C(=O)CNC(=O)c1ccccc1 (stereo unspecified) |  | inconclusive [inhibitor, single point]
COc1cccc(C2NC(=O)NC(O)(C(F)(F)F)C2C(=O)c2cccnc2)c1OC (stereo unspecified) |  | inconclusive [inhibitor, single point]
O=C(Nc1ccc2oc(-c3ccccc3)nc2c1)c1ccco1 | inactive: 68.4% | 

Compound | activity change, negative = inhibition | Potency
CC(C)CC(=O)Nc1ccc(C(=O)CN2C(=O)NC3(CCOc4ccccc43)C2=O)cc1 (stereo unspecified) |  | inconclusive [inhibitor, partial curve, poor fit]
CCn1c(=N)n(CC(=O)C23CC4CC(CC(C4)C2)C3)c2ccccc21 |  | inconclusive [inhibitor, single point]
O=C(N/N=C/c1ccccc1O)C1CCCC1 |  | inconclusive [inhibitor, single point]
COc1cc(Cl)ccc1OCc1cc(C(=O)N2CCN(C)CC2)no1 | inactive: 9.61% | 
Cc1cc(Cn2nc(C(=O)NCc3cccs3)cc2-c2ccccc2)on1 |  | inconclusive [inhibitor, partial curve, poor fit]
Cc1ccccc1CNC(=O)CC1C(=O)NCCN1CC1CCCCC1 (stereo unspecified) |  | inconclusive [inhibitor, partial curve, poor fit]
Cc1ccn2cc(CCNC(=O)c3ccc(Br)o3)nc2c1 |  | inconclusive [inhibitor, single point]
CCOc1ccc2nc(NC(=O)c3c([N+](=O)[O-])cnn3CC)sc2c1 | inactive: 21.7% | 
CC(C)CN(C(=O)COC(=O)c1c(Cl)ccc(Cl)c1Cl)C1CCS(=O)(=O)C1 (stereo unspecified) |  | inconclusive [inhibitor, partial curve, poor fit]
CC(=O)n1cc(Nc2ccc([N+](=O)[O-])cc2)c2ccccc21 |  | inconclusive [inhibitor, single point]
CC(C)CNC(=S)N1CCN(c2nc(-c3ccc(Cl)cc3)cs2)CC1 | inactive: -8.13% | 
Cc1ccc(/C=C/C(=O)N2CCC(Cc3ccccc3)CC2)cc1 | inactive: -5.61% | 
CC(NC(=O)c1ccc(-c2ccccc2)cc1)C(c1ccccc1)N1CCOCC1 (stereo unspecified) |  | active: 7.38 µM
CCOc1ccc(N(C(=O)c2snc(C(N)=O)c2N)C(C(=O)NC2CCCC2)C(C)C)cc1 (stereo unspecified) | inactive: 0% | 
COc1ccc(CN(C)C(=O)CCc2ccc(S(=O)(=O)N3CCCCCC3)cc2)c(OC)c1 |  | active: 13.1 µM
O=C(Cn1cc[n+](CC(=O)c2ccccc2)c1)c1ccccc1 |  | active: 1.04 µM
CCOC(=O)c1c(CN(C)C)n(-c2ccccc2)c2cc(Br)c(OC)cc12 |  | inconclusive [inhibitor, single point]
COc1ccc2oc(C(=O)N(Cc3ccco3)Cc3cccs3)c(C)c2c1 |  | inconclusive [inhibitor, partial curve, poor fit]
CSc1c(SCc2ccccc2)cnn(Cc2ccccc2)c1=O |  | inconclusive [inhibitor, partial curve, poor fit]
O=C(COc1cccc2ccccc12)Nc1cc(S(=O)(=O)N2CCOCC2)ccc1N1CCOCC1 |  | active: 11.7 µM
Cc1ccc(C(=O)NCC(=O)N2CCCCCCC2)cc1 |  | inconclusive [inhibitor, single point]
Cc1ccc(S(=O)(=O)N2CCCCC2)cc1NC(=O)c1ccccn1 | inactive: 0% | 
O=c1c2cc(NC(=S)NCCCN3CCC(Cc4ccccc4)CC3)ccc2nc2n1CCCCC2 |  | inconclusive [inhibitor, single point]
CN(C)CCCOC(=O)COc1ccc(Br)cc1 |  | inconclusive [inhibitor, full curve, poor fit]

Compound | activity change, negative = inhibition | Potency
COC(=O)C1=C(c2cccc(OCc3ccccc3)c2)C[C@@H]2CC[C@H]1N2C(=O)NCc1cccc(C(F)(F)F)c1 |  | active: 13.1 µM
COc1ccc(S(=O)(=O)/N=C2\C=C(Nc3ccc(O)cc3)C(=O)c3ccccc32)cc1 |  | active: 0.928 µM
Cc1cc2nc(-c3ccc(SCc4ccccn4)nc3)[nH]c2cc1C |  | inconclusive [inhibitor, single point]
Cc1oc(-c2ccccc2)nc1CS(=O)CC(=O)NC1CCCC1 (stereo unspecified) | inactive: 5.46% | 
Cc1csc(CNc2ncnc3ccc(-c4cccc(Cl)c4)cc23)c1 |  | active: 7.38 µM
Cc1ccc(S(=O)(=O)C2(C(=O)N3CCN(c4cc(C)ccc4C)CC3)CC2)cc1 |  | inconclusive [inhibitor, full curve, poor fit]
O=C(NC1CCCCCC1)C1CCC(CNS(=O)(=O)c2ccc(Br)s2)CC1 (stereo unspecified) |  | inconclusive [inhibitor, single point]
Cc1cc(OCCn2cc(/C(N)=N/O)c3ccccc32)ccc1Cl |  | inconclusive [inhibitor, partial curve, poor fit]
CCN(c1ccccc1)S(=O)(=O)c1cc2c3c(c1)C(C)C(=O)N3CCC2 (stereo unspecified) |  | inconclusive [inhibitor, partial curve, poor fit]
CC(=O)Nc1ccc(-c2csc(NC(=O)C3CCN(S(=O)(=O)c4cccs4)CC3)n2)cc1 |  | active: 2.08 µM
Cc1cccc(C)c1Oc1nc(-c2ccccc2)ncc1S(=O)(=O)c1ccccc1 |  | active: 2.08 µM
CC1CCC(NC(=O)CC(C)(C)Cc2nc3ccccc3c(=O)[nH]2)CC1 (stereo unspecified) | inactive: 8.57% | 
O=C(CN1C(=O)NC2(CCCCCCC2)C1=O)Nc1ccc(Br)cc1 | inactive: -2.22% | 
COc1ccc(-n2c(Cc3cccn3C)nnc2SCC(=O)N2CCCc3ccccc32)cc1 |  | inconclusive [inhibitor, full curve]
CCOc1ccc(OCC)c(NC(=O)CN2CCC(NC(=O)c3cccc(F)c3)CC2)c1 |  | inconclusive [inhibitor, single point]
CCOC(=O)C(=O)c1csc(NC(=O)CCSc2ccc(C)cc2)n1 | inactive: 1.46% | 
Cc1ccc(SCC(=O)NC(=O)NCc2ccccc2)c(C)c1 | inactive: 13.7% | 
Cc1ccc(C2=NN=C(NC(=O)CSc3nncn3C)SC2)cc1 |  | inconclusive [inhibitor, single point]
CCc1cc(C(=O)Nc2ccccc2N2CCOCC2)sc1C | inactive: -1.12% | 
O=C(c1cc(COc2ccc(F)c(F)c2)on1)N1CCN(C2CCCCC2)C(=O)C1 |  | inconclusive [inhibitor, single point]
Cc1ccccc1Cn1cc(/C=N/n2cnnc2)c2ccccc21 |  | inconclusive [inhibitor, single point]
COc1ccc(Cl)cc1NC(=O)CCN1CCN(c2ccccc2C)CC1 |  | inconclusive [inhibitor, single point]
O=C(O)/C=C\C(=O)Nc1ccc(N2CCN(c3ccc(F)cc3)CC2)cc1 |  | inconclusive [inhibitor, single point]
